According to publication PMC12820563, “FoxP3 forms a head-to-head dimer in vivo and stabilizes its multimerization on adjacent microsatellites”:
The other results are listed elsewhere or left out.

molecular target: T1, MBP-FoxP1dN (Mus musculus, UniProt P58462 326-579); assay: PD-seq (MBP pull-down with sequencing); 20 mM Tris-HCl pH 7.5, 100 mM NaCl, 1.5 mM MgCl2, 0.4 uM protein, 0.1 uM dsDNA library, 30 min, room temperature, amylose pull-down; high values mean tight binding; settings: protein: recombinant; tags: His6-MBP; chain copies: 2; dsDNA, one strand shown
T1 sequence: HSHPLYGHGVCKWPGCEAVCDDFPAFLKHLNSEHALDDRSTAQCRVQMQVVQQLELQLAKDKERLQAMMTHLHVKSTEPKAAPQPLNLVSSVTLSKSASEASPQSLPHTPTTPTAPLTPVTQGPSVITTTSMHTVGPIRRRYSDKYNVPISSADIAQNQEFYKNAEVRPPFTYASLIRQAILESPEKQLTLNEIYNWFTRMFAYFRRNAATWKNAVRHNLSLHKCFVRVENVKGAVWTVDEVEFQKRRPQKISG
How it was run: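 A fragment of mouse FoxP3 or FoxP1 without its N-terminus, carrying a His6-MBP tag and produced in E. coli, was combined at 0.4 µM with a 0.1 µM degenerate double-stranded DNA library filled in with Klenow. The mixture sat for 30 min at room temperature in Tris pH 7.5 buffer containing NaCl and MgCl2. Protein–DNA complexes were captured on amylose resin, washed three times, and the DNA was freed with proteinase K, barcoded by PCR and sequenced on Illumina. Binding is expressed as reads-per-million enrichment of pull-down over input, with replicates pooled.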

Sequence | binding signal
GATGATTGTTCTCCCAGCTGATGAATTCACTTTTTCGAGTAAACAAATTTTCCTAATCTTTCTGTTCAAGCGCCATCTAC | 0.894 RPM ratio (pull-down/input)
GATGATTGTTCTCCCAGCTGATGAATTCGATACCTCGAGTAAACAAATTTTCCTAATCTTTCTGTTCAAGCGCCATCTAC | 0.812 RPM ratio (pull-down/input)
GATGATTGTTCTCCCAGCTGATGAATTATAAGACTCGAGTAAACAAATTTTCCTAATCTTTCTGTTCAAGCGCCATCTAC | 0.953 RPM ratio (pull-down/input)
GATGATTGTTCTCCCAGCTGATGAATTGGAACTCTCGAGTAAACAAATTTTCCTAATCTTTCTGTTCAAGCGCCATCTAC | 0.757 RPM ratio (pull-down/input)
GATGATTGTTCTCCCAGCTGATGAATTACATCACTCGAGTAAACAAATTTTCCTAATCTTTCTGTTCAAGCGCCATCTAC | 1.1 RPM ratio (pull-down/input)
GATGATTGTTCTCCCAGCTGATGAATTGGTTGAGTCGAGTAAACAAATTTTCCTAATCTTTCTGTTCAAGCGCCATCTAC | 0.962 RPM ratio (pull-down/input)
GATGATTGTTCTCCCAGCTGATGAATTAGGGGGGTCGAGTAAACAAATTTTCCTAATCTTTCTGTTCAAGCGCCATCTAC | 0.706 RPM ratio (pull-down/input)
GATGATTGTTCTCCCAGCTGATGAATTTATGCTATCGAGTAAACAAATTTTCCTAATCTTTCTGTTCAAGCGCCATCTAC | 1.29 RPM ratio (pull-down/input)
GATGATTGTTCTCCCAGCTGATGAATTATTACTATCGAGTAAACAAATTTTCCTAATCTTTCTGTTCAAGCGCCATCTAC | 1.21 RPM ratio (pull-down/input)
GATGATTGTTCTCCCAGCTGATGAATTTTGCTAGTCGAGTAAACAAATTTTCCTAATCTTTCTGTTCAAGCGCCATCTAC | 1.01 RPM ratio (pull-down/input)
GATGATTGTTCTCCCAGCTGATGAATTGCTGACTTCGAGTAAACAAATTTTCCTAATCTTTCTGTTCAAGCGCCATCTAC | 1.04 RPM ratio (pull-down/input)
GATGATTGTTCTCCCAGCTGATGAATTTTTTCTATCGAGTAAACAAATTTTCCTAATCTTTCTGTTCAAGCGCCATCTAC | 1.08 RPM ratio (pull-down/input)
GATGATTGTTCTCCCAGCTGATGAATTCTTGAACTCGAGTAAACAAATTTTCCTAATCTTTCTGTTCAAGCGCCATCTAC | 0.854 RPM ratio (pull-down/input)
GATGATTGTTCTCCCAGCTGATGAATTTATAGCTTCGAGTAAACAAATTTTCCTAATCTTTCTGTTCAAGCGCCATCTAC | 0.986 RPM ratio (pull-down/input)
GATGATTGTTCTCCCAGCTGATGAATTGAAATGGTCGAGTAAACAAATTTTCCTAATCTTTCTGTTCAAGCGCCATCTAC | 0.809 RPM ratio (pull-down/input)
GATGATTGTTCTCCCAGCTGATGAATTCAACAGATCGAGTAAACAAATTTTCCTAATCTTTCTGTTCAAGCGCCATCTAC | 0.949 RPM ratio (pull-down/input)
GATGATTGTTCTCCCAGCTGATGAATTATATGGCTCGAGTAAACAAATTTTCCTAATCTTTCTGTTCAAGCGCCATCTAC | 0.929 RPM ratio (pull-down/input)
GATGATTGTTCTCCCAGCTGATGAATTCTTTAATTCGAGTAAACAAATTTTCCTAATCTTTCTGTTCAAGCGCCATCTAC | 0.994 RPM ratio (pull-down/input)
GATGATTGTTCTCCCAGCTGATGAATTAAGAATATCGAGTAAACAAATTTTCCTAATCTTTCTGTTCAAGCGCCATCTAC | 1.04 RPM ratio (pull-down/input)
GATGATTGTTCTCCCAGCTGATGAATTCACTCCTTCGAGTAAACAAATTTTCCTAATCTTTCTGTTCAAGCGCCATCTAC | 0.804 RPM ratio (pull-down/input)
GATGATTGTTCTCCCAGCTGATGAATTAGAATGCTCGAGTAAACAAATTTTCCTAATCTTTCTGTTCAAGCGCCATCTAC | 1.19 RPM ratio (pull-down/input)

Sequence | binding signal
GATGATTGTTCTCCCAGCTGATGAATTTGCTAAATCGAGTAAACAAATTTTCCTAATCTTTCTGTTCAAGCGCCATCTAC | 1.13 RPM ratio (pull-down/input)
GATGATTGTTCTCCCAGCTGATGAATTGACGTATTCGAGTAAACAAATTTTCCTAATCTTTCTGTTCAAGCGCCATCTAC | 1.26 RPM ratio (pull-down/input)
GATGATTGTTCTCCCAGCTGATGAATTTTCGTCTTCGAGTAAACAAATTTTCCTAATCTTTCTGTTCAAGCGCCATCTAC | 0.955 RPM ratio (pull-down/input)
GATGATTGTTCTCCCAGCTGATGAATTACGTTCTTCGAGTAAACAAATTTTCCTAATCTTTCTGTTCAAGCGCCATCTAC | 1.05 RPM ratio (pull-down/input)
GATGATTGTTCTCCCAGCTGATGAATTCACTCTTTCGAGTAAACAAATTTTCCTAATCTTTCTGTTCAAGCGCCATCTAC | 0.866 RPM ratio (pull-down/input)
GATGATTGTTCTCCCAGCTGATGAATTAATATCTTCGAGTAAACAAATTTTCCTAATCTTTCTGTTCAAGCGCCATCTAC | 0.953 RPM ratio (pull-down/input)
GATGATTGTTCTCCCAGCTGATGAATTTATGTAGTCGAGTAAACAAATTTTCCTAATCTTTCTGTTCAAGCGCCATCTAC | 1.25 RPM ratio (pull-down/input)
GATGATTGTTCTCCCAGCTGATGAATTCCATACCTCGAGTAAACAAATTTTCCTAATCTTTCTGTTCAAGCGCCATCTAC | 0.835 RPM ratio (pull-down/input)
GATGATTGTTCTCCCAGCTGATGAATTTTGGATTTCGAGTAAACAAATTTTCCTAATCTTTCTGTTCAAGCGCCATCTAC | 0.899 RPM ratio (pull-down/input)
GATGATTGTTCTCCCAGCTGATGAATTAGCCTCCTCGAGTAAACAAATTTTCCTAATCTTTCTGTTCAAGCGCCATCTAC | 0.863 RPM ratio (pull-down/input)
GATGATTGTTCTCCCAGCTGATGAATTAACTTAATCGAGTAAACAAATTTTCCTAATCTTTCTGTTCAAGCGCCATCTAC | 0.934 RPM ratio (pull-down/input)
GATGATTGTTCTCCCAGCTGATGAATTTTCCTTTTCGAGTAAACAAATTTTCCTAATCTTTCTGTTCAAGCGCCATCTAC | 0.942 RPM ratio (pull-down/input)
GATGATTGTTCTCCCAGCTGATGAATTCTGCTATTCGAGTAAACAAATTTTCCTAATCTTTCTGTTCAAGCGCCATCTAC | 0.976 RPM ratio (pull-down/input)
GATGATTGTTCTCCCAGCTGATGAATTGCAGCATTCGAGTAAACAAATTTTCCTAATCTTTCTGTTCAAGCGCCATCTAC | 1.24 RPM ratio (pull-down/input)
GATGATTGTTCTCCCAGCTGATGAATTACCGTTATCGAGTAAACAAATTTTCCTAATCTTTCTGTTCAAGCGCCATCTAC | 1.13 RPM ratio (pull-down/input)
GATGATTGTTCTCCCAGCTGATGAATTGTTACGTTCGAGTAAACAAATTTTCCTAATCTTTCTGTTCAAGCGCCATCTAC | 1.25 RPM ratio (pull-down/input)
GATGATTGTTCTCCCAGCTGATGAATTTTGCAGATCGAGTAAACAAATTTTCCTAATCTTTCTGTTCAAGCGCCATCTAC | 0.889 RPM ratio (pull-down/input)
GATGATTGTTCTCCCAGCTGATGAATTAGGCCTATCGAGTAAACAAATTTTCCTAATCTTTCTGTTCAAGCGCCATCTAC | 0.898 RPM ratio (pull-down/input)
GATGATTGTTCTCCCAGCTGATGAATTCTCCACGTCGAGTAAACAAATTTTCCTAATCTTTCTGTTCAAGCGCCATCTAC | 0.893 RPM ratio (pull-down/input)
GATGATTGTTCTCCCAGCTGATGAATTACCCCAGTCGAGTAAACAAATTTTCCTAATCTTTCTGTTCAAGCGCCATCTAC | 0.944 RPM ratio (pull-down/input)
GATGATTGTTCTCCCAGCTGATGAATTGAACACGTCGAGTAAACAAATTTTCCTAATCTTTCTGTTCAAGCGCCATCTAC | 0.926 RPM ratio (pull-down/input)

Sequence | binding signal
GATGATTGTTCTCCCAGCTGATGAATTTGAAATTTCGAGTAAACAAATTTTCCTAATCTTTCTGTTCAAGCGCCATCTAC | 0.86 RPM ratio (pull-down/input)
GATGATTGTTCTCCCAGCTGATGAATTGTTTTACTCGAGTAAACAAATTTTCCTAATCTTTCTGTTCAAGCGCCATCTAC | 1.42 RPM ratio (pull-down/input)
GATGATTGTTCTCCCAGCTGATGAATTAACTCGGTCGAGTAAACAAATTTTCCTAATCTTTCTGTTCAAGCGCCATCTAC | 0.818 RPM ratio (pull-down/input)
GATGATTGTTCTCCCAGCTGATGAATTCGCTAACTCGAGTAAACAAATTTTCCTAATCTTTCTGTTCAAGCGCCATCTAC | 0.873 RPM ratio (pull-down/input)
GATGATTGTTCTCCCAGCTGATGAATTTATACTATCGAGTAAACAAATTTTCCTAATCTTTCTGTTCAAGCGCCATCTAC | 1.32 RPM ratio (pull-down/input)
GATGATTGTTCTCCCAGCTGATGAATTTTAGAGGTCGAGTAAACAAATTTTCCTAATCTTTCTGTTCAAGCGCCATCTAC | 0.754 RPM ratio (pull-down/input)
GATGATTGTTCTCCCAGCTGATGAATTATCTACGTCGAGTAAACAAATTTTCCTAATCTTTCTGTTCAAGCGCCATCTAC | 0.996 RPM ratio (pull-down/input)
GATGATTGTTCTCCCAGCTGATGAATTGATCGACTCGAGTAAACAAATTTTCCTAATCTTTCTGTTCAAGCGCCATCTAC | 0.984 RPM ratio (pull-down/input)
GATGATTGTTCTCCCAGCTGATGAATTCGAATGTTCGAGTAAACAAATTTTCCTAATCTTTCTGTTCAAGCGCCATCTAC | 0.954 RPM ratio (pull-down/input)
GATGATTGTTCTCCCAGCTGATGAATTTGGCAGCTCGAGTAAACAAATTTTCCTAATCTTTCTGTTCAAGCGCCATCTAC | 0.875 RPM ratio (pull-down/input)
GATGATTGTTCTCCCAGCTGATGAATTTTCGGCGTCGAGTAAACAAATTTTCCTAATCTTTCTGTTCAAGCGCCATCTAC | 0.883 RPM ratio (pull-down/input)
GATGATTGTTCTCCCAGCTGATGAATTTCGCCCATCGAGTAAACAAATTTTCCTAATCTTTCTGTTCAAGCGCCATCTAC | 0.827 RPM ratio (pull-down/input)
GATGATTGTTCTCCCAGCTGATGAATTATATTACTCGAGTAAACAAATTTTCCTAATCTTTCTGTTCAAGCGCCATCTAC | 1.08 RPM ratio (pull-down/input)
GATGATTGTTCTCCCAGCTGATGAATTCTCATATTCGAGTAAACAAATTTTCCTAATCTTTCTGTTCAAGCGCCATCTAC | 0.94 RPM ratio (pull-down/input)
GATGATTGTTCTCCCAGCTGATGAATTGTGTACGTCGAGTAAACAAATTTTCCTAATCTTTCTGTTCAAGCGCCATCTAC | 1.71 RPM ratio (pull-down/input)
GATGATTGTTCTCCCAGCTGATGAATTTTCGCTATCGAGTAAACAAATTTTCCTAATCTTTCTGTTCAAGCGCCATCTAC | 1.06 RPM ratio (pull-down/input)
GATGATTGTTCTCCCAGCTGATGAATTTATATTATCGAGTAAACAAATTTTCCTAATCTTTCTGTTCAAGCGCCATCTAC | 2.04 RPM ratio (pull-down/input)
GATGATTGTTCTCCCAGCTGATGAATTGGTGAGATCGAGTAAACAAATTTTCCTAATCTTTCTGTTCAAGCGCCATCTAC | 0.906 RPM ratio (pull-down/input)
GATGATTGTTCTCCCAGCTGATGAATTATTGAGATCGAGTAAACAAATTTTCCTAATCTTTCTGTTCAAGCGCCATCTAC | 1.11 RPM ratio (pull-down/input)
GATGATTGTTCTCCCAGCTGATGAATTTATTGCGTCGAGTAAACAAATTTTCCTAATCTTTCTGTTCAAGCGCCATCTAC | 1.31 RPM ratio (pull-down/input)
GATGATTGTTCTCCCAGCTGATGAATTAGTTTAATCGAGTAAACAAATTTTCCTAATCTTTCTGTTCAAGCGCCATCTAC | 1.02 RPM ratio (pull-down/input)
